The campaign covered roughly 39,000 compounds. About 220 (0.56%) showed activity. This is one part of the list.
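Further: static incubation at 37 °C against the wild-type strain, values averaged over two biological replicates.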

In this assay the test system is Escherichia coli K-12 BW25113. Nature of the assay: relative growth (OD600 normalised to plate interquartile mean) (fraction); higher = less growth inhibition, active = 0.2 or less. Conditions: 50 µM; LB; incubation time: overnight (16-24 h).
As to `C[C@@H]1CN([C@H](C)CO)C(=O)c2cc(NC(=O)CCCN(C)C)ccc2O[C@@H](C)CCCCO[C@H]1CN(C)C(=O)Nc1ccc(F)cc1`, the relative growth was inactive: 0.969.

`C[C@@H]1CN([C@H](C)CO)S(=O)(=O)c2ccc(C#CC(C)(C)O)cc2O[C@@H]1CN(C)Cc1ccccc1`: the relative growth is inactive: 0.997. Then `C=CCc1ccccc1OCC(O)CNC(C)C.Cl` (configuration not stated), with inactive: 0.904; and `Cc1noc(C)c1S(=O)(=O)Nc1ccc2c(c1)CC(=O)N([C@H](C)CO)C[C@H](C)[C@H](CN(C)S(=O)(=O)c1ccc(F)cc1)O2`, with inactive: 0.998; and `Cc1noc(C)c1NC(=O)N[C@@H]1CC[C@@H](CC(=O)NCCCN(C)C)O[C@@H]1CO`, with inactive: 0.991. In the case of `Cc1noc(C)c1S(=O)(=O)N(C)C[C@H]1Oc2c(NS(=O)(=O)c3cn(C)cn3)cccc2C(=O)N([C@@H](C)CO)C[C@@H]1C`, the relative growth was inactive: 0.976. Then `C[C@H]1CN([C@@H](C)CO)S(=O)(=O)c2ccc(C#Cc3ccncc3)cc2O[C@@H]1CN(C)S(=O)(=O)c1ccc(F)cc1`, with inactive: 1.03.

With `COc1ccc(NC(=O)N(C)C[C@@H]2OCCCC[C@H](C)Oc3ccc(NS(=O)(=O)c4ccc(C)cc4)cc3C(=O)N([C@H](C)CO)C[C@@H]2C)cc1`, the relative growth was inactive: 1.01.

On to `COc1ccc(NC(=O)N(C)C[C@H]2Oc3ccc(NC(=O)C4CC4)cc3C(=O)N([C@H](C)CO)C[C@@H]2C)cc1`, for which the relative growth was inactive: 0.985. The result for `COC(=O)c1c(CC[C@@H](CO)NC(=O)N[C@@H](C)Cn2cc(C3(O)CCCC3)nn2)oc(C(C)=O)c1C(=O)OC` reads inactive: 0.907. Then `C[C@@H]1CCCCO[C@H](CN(C)C(=O)Nc2ccccc2)[C@H](C)CN([C@H](C)CO)C(=O)c2cc(NS(=O)(=O)c3ccc(Cl)cc3)ccc2O1`, with inactive: 0.994; and `Cc1noc(C)c1S(=O)(=O)N(C)C[C@@H]1Oc2ccc(NC(=O)CCN3CCOCC3)cc2CC(=O)N([C@@H](C)CO)C[C@H]1C`, with inactive: 0.999; and `C[C@H](CO)N1C[C@H](C)[C@H](CN(C)C(=O)N[C@H](C)c2ccccc2)OCc2ccccc2-c2ccccc2C1=O`, with inactive: 1.01.

Turning to `C[C@H](CO)N1C[C@H](C)[C@@H](CN(C)Cc2ccc(C(=O)Nc3ccccc3N)cc2)Oc2ccc(NS(=O)(=O)c3ccc(Cl)cc3)cc2CC1=O`, the relative growth is inactive: 1.01.

On to `C[C@@H]1CN([C@@H](C)CO)C(=O)c2cccc(NS(=O)(=O)c3ccccc3)c2O[C@@H]1CN(C)S(=O)(=O)c1cn(C)cn1`, for which the relative growth is inactive: 1.01. Regarding `CC(C)CC#Cc1cnc2c(c1)C(=O)N([C@@H](C)CO)C[C@H](C)[C@H](CN(C)S(=O)(=O)c1cn(C)cn1)O2`, the relative growth is inactive: 0.992. Then `C[C@H]1CN([C@@H](C)CO)C(=O)Cc2cc(NS(=O)(=O)c3cn(C)cn3)ccc2O[C@H]1CN(C)C(=O)NC1CCCCC1`, with inactive: 0.996; and `CCO[C@H]1OC(C(=O)N2CCN(Cc3ccccc3)CC2)=C[C@@H](c2csc3ccccc23)[C@@H]1CCCOC(=O)NCCCCCC(=O)NO`, with inactive: 0.993; and `CC(C)CNC(=O)[C@@]1(C)c2ccccc2C(=O)N(Cc2cc(C(F)(F)F)cc(C(F)(F)F)c2)[C@H]1c1ccc(CO)cc1`, with inactive: 0.985. The result for `C[C@H]1CCc2[nH]c3ccccc3c2C1` reads inactive: 1.01; that for `CC(C)NCCCn1c(Sc2cc3c(cc2I)OCO3)nc2c(N)ncnc21`, inactive: 0.984; that for `C[C@H](CO)N1C[C@H](C)[C@@H](CN(C)Cc2ccc(-c3ccccc3)cc2)Oc2ccc(NC(=O)c3ccncc3)cc2C1=O`, inactive: 0.995. For `CCN(CCO)CCCOc1ccc2c(Nc3cc(CC(=O)Nc4cccc(F)c4)n[nH]3)ncnc2c1`, the relative growth was inactive: 1.01.

With `Cc1noc(C)c1NC(=O)N(C)C[C@@H]1Oc2c(NC(=O)C3CC3)cccc2C(=O)N([C@@H](C)CO)C[C@@H]1C`, the relative growth is inactive: 0.994. As for `C[C@@H]1CN([C@@H](C)CO)C(=O)c2cccc(NC(=O)NC3CCCCC3)c2O[C@H]1CN(C)S(C)(=O)=O`, the relative growth was inactive: 0.992. `C[C@@H]1CCCCO[C@H](CN(C)Cc2ccncc2)[C@H](C)CN([C@H](C)CO)C(=O)c2cc(NC(=O)c3ccccc3)ccc2O1`: the relative growth is inactive: 0.993. With `COc1ccc(CN(C)C[C@H]2Oc3ccc(NS(=O)(=O)c4cn(C)cn4)cc3C(=O)N([C@H](C)CO)C[C@@H]2C)cc1`, the relative growth was inactive: 0.96. Then `CC(C)NC(=O)N(C)C[C@H]1Oc2cc(C#Cc3cccc(F)c3)ccc2S(=O)(=O)N([C@H](C)CO)C[C@@H]1C`, with inactive: 1.04. Then `Cc1ccc(S(=O)(=O)N(C)C[C@H]2OCCCC[C@@H](C)Oc3ccc(NC(=O)Nc4ccccc4)cc3C(=O)N([C@H](C)CO)C[C@H]2C)cc1`, with inactive: 1; and `C[C@@H]1CCCCO[C@@H](CN(C)S(=O)(=O)c2cn(C)cn2)[C@H](C)CN([C@H](C)CO)C(=O)c2cc(NS(=O)(=O)c3ccc(F)cc3)ccc2O1`, with inactive: 1.02; and `CC(C)NC(=O)Nc1ccc2c(c1)C(=O)N([C@H](C)CO)C[C@@H](C)[C@H](CN(C)C(=O)NC1CCCCC1)O2`, with inactive: 0.97. The result for `C[C@@H]1CN([C@@H](C)CO)C(=O)c2cccc(NC(=O)Nc3ccccc3)c2O[C@H]1CN(C)S(=O)(=O)c1cn(C)cn1` reads inactive: 1.01. For `C[C@@H]1CN([C@@H](C)CO)C(=O)c2cc(NC(=O)CCC(F)(F)F)ccc2O[C@@H](C)CCCCO[C@@H]1CN(C)C(=O)C1CCCCC1`, the relative growth is inactive: 0.992.

As for `COc1ccc2c3c(n(c2c1)C)[C@@H](CO)N(C[C@]13CCN(CC1)C(=O)c1ccccc1)C(=O)Nc1ccccc1F`, the relative growth was inactive: 1.03. Turning to `C[C@@H]1CCCCO[C@@H](CN(C)Cc2ccncc2)[C@@H](C)CN([C@H](C)CO)C(=O)c2cc(NC(=O)CCCCCC(=O)Nc3ccccc3N)ccc2O1`, the relative growth was inactive: 0.966. The result for `C[C@@H]1CN([C@@H](C)CO)C(=O)c2ccccc2-c2ccccc2CO[C@@H]1CN(C)Cc1cccc(C(F)(F)F)c1` reads inactive: 1.05; that for `C[C@H]1CCCCO[C@H](CN(C)C(=O)CCCN(C)C)[C@@H](C)CN([C@@H](C)CO)C(=O)c2cc(NC(=O)Nc3ccc(F)cc3)ccc2O1`, inactive: 1.03.

The values are drawn from the supplement of paper PMC9446081.
